# Assay results reported in PubChem BioAssay AID463173 (ICCB-Longwood Screening Facility, Harvard Medical School, 2010).
# About 4,300 (8.3%) of roughly 52,000 compounds were called active. Rule as the data show it: active = survival mostly below about 52% (no sharp cut-off); inactive = mostly above about 56%. This is one part of the list.
# Test system: DeltatarO mutant
# Experiment: growth inhibition of S. aureus wild type versus tarO mutant, primary screen, teichoic acid synthesis inhibitors, RN4220, OD600 (AID 463173)
# Conditions: OD600, 18 h, hits give low values, screened at 18.75 µg/mL (by protocol)
row,Compound,survival
1,Cc1ccc(C2c3[nH]c4ccccc4c3CCN2C(=O)CSCc2ccc(F)cc2)cc1 (stereo not given),inactive: 93%
2,O=C(NCCc1csc(-c2ccc(F)cc2)n1)c1cccc(F)c1,inactive: 91%
3,COc1ccccc1CNC(=O)C1CCN(S(=O)(=O)c2cn(C)cn2)CC1,active: 0%
4,CCc1ccccc1N(C)C(=O)c1sc2nc3n(c(=O)c2c1C)CCCCC3,inactive: 50%
5,COc1ccc(N2CC(NC(=O)/C=C\c3ccccc3)CC2=O)cc1OC (stereo not given),inactive: 95%
6,Cc1nn(C)c(C)c1CCNC(=O)Nc1ccccc1C(F)(F)F,active: 6%
7,CCN(CC)c1nn2c(=O)c(C(=O)NCc3ccc(N(C)C)cc3)cnc2s1,inactive: 82%
8,COc1ccc(CNC(=O)Cn2c(-c3ccccc3)cc(C(C)=O)c2C)cc1OC,inactive: 92%
9,CCC(=O)N1CCc2cc(S(=O)(=O)NC(C(=O)NCCc3cccc(C)c3)C(C)C)ccc21 (stereo not given),inactive: 86%
10,O=C(NCc1cccs1)c1ccc(CSc2nc3ccncc3n2Cc2ccccc2F)cc1,inactive: 103%
11,CC(=O)O/N=C1/CC(C)(C)Cc2onc(C)c21,inactive: 76%
12,Cc1ccc(N2CCN(S(=O)(=O)c3ccc(-n4cnnn4)cc3)CC2)c(C)c1,inactive: 81%
13,COc1ccc(-n2c(=O)c3c4c(sc3n(Cc3ccc(C(C)(C)C)cc3)c2=O)CCC4)c(OC)c1,inactive: 68%
14,CCn1nnc2cc(C(=O)Nc3ccc(OC)cc3)ccc21,inactive: 102%
15,Cc1ccc(Cl)cc1N1CCN(C(=O)c2ccc3c(c2)N(Cc2ccccc2)CCS3)CC1,inactive: 74%
16,Cc1ccc(-c2ccc(CCC(=O)O)n2-c2cccc(C)c2C)cc1,active: 34%
17,Cc1ccc(C)c(N2CCN(C(=O)CN3C(=O)COc4ccc(S(=O)(=O)N5CCC(C)CC5)cc43)CC2)c1,inactive: 75%
18,CCOc1ccc(Br)cc1S(=O)(=O)Nc1cccc(-c2ccc(OC)nn2)c1,inactive: 84%
19,COc1ccc(NC(=O)c2c(C)oc3ccc(O)c(CN4CCCCCC4)c23)cc1,inactive: 104%
20,c1ccc(N2CCN(Cc3nnnn3Cc3ccc4c(c3)OCO4)CC2)cc1,inactive: 87%
21,COCCn1c(C)cc(O)c(C(c2ccc(OC)cc2)N2CCN(c3ccccc3)CC2)c1=O (stereo not given),inactive: 58%
22,Cc1ccc(C)c(-n2nnc(C(=O)Nc3ccc(Br)cc3)c2C)c1,active: 18%
23,CS(=O)(=O)c1cccc(S(=O)(=O)c2cccc(S(C)(=O)=O)c2)c1,inactive: 81%

row,Compound,survival
1,COc1ccc(CCNC(=O)c2cc(=O)[nH]c3ccc(S(=O)(=O)N4CCCCC4C)cc23)cc1OC (stereo not given),inactive: 117%
2,Cc1cn2c(=O)cc(COC(=O)c3ccc(NC(=O)C(C)Oc4ccccc4)cc3)nc2s1 (stereo not given),active: 8%
3,CCOCCCNC(=O)c1c(NC(=O)c2nc(SC)ncc2Cl)sc2c1CCCC2,inactive: 64%
4,Cc1cc(C)nc(Nc2nc3ccccc3c(=O)[nH]2)n1,active: 74%
5,O=C1CCCC/C1=C/Nc1ccc2c(c1)OCO2,inactive: 94%
6,O=C(Nc1cc(Cl)cc(Cl)c1)c1cc(S(=O)(=O)N2CCC3(CC2)OCCO3)ccc1F,inactive: 89%
7,O=C(NCCc1ccccc1)c1nn(-c2ccccc2Cl)nc1CO,inactive: 93%
8,COc1ccc(OC)c(NC(=O)CCNC(=O)Cn2cnc3ccccc3c2=O)c1,inactive: 77%
9,CCOC(=O)c1c(N)n(-c2cc(C)cc(C)c2)c2nc3ccccc3nc12,inactive: 57%
10,COc1ccc(-c2nc3ccc(Cl)cn3c2Nc2ccc(C)cc2)cc1,inactive: 55%
11,CCCCNC(=O)c1cn(C)c2ccc(S(=O)(=O)N3CCCC3)cc2c1=O,inactive: 139%
12,COc1ccc(OCC2c3cc(OC)c(OC)cc3CCN2C(=O)c2c(F)cccc2F)cc1 (stereo not given),inactive: 112%
13,O=C1CCCc2c1[nH]c1ccccc21,inactive: 97%
14,CCc1ccc(-n2nc(CO)c(C(=O)NCc3cccs3)n2)cc1,inactive: 60%
15,Cc1cc2c(cc1S(=O)(=O)NCc1ccccc1Cl)OCC(=O)N2,inactive: 84%
16,Cc1ccc(-n2ncc3c(Nc4cccc(C(F)(F)F)c4)ncnc32)cc1C,inactive: 83%
17,COc1cccc(-c2nc(CS(=O)(=O)CC(=O)NCCc3ccc(Cl)cc3)c(C)o2)c1,inactive: 63%
18,Cc1cc(C)cc(NC(=O)COCc2cc(-c3ccc4c(c3)OCO4)on2)c1,inactive: 55%
19,COc1cccc(N2CCN(C(=O)C3CCN(S(=O)(=O)c4cn(C)cn4)CC3)CC2)c1,inactive: 144%
20,CCOCCn1c(=O)c2c(nc3n2CCN3c2ccc(C)c(C)c2)n(C)c1=O,inactive: 91%
21,CC1CCCCN1C(=O)CSc1c2c(nc3cc(Cl)ccc13)CCCC2 (stereo not given),active: -6%
22,CC(C)c1ccc(NC(=O)c2cnc3sc(N4CCOCC4)nn3c2=O)cc1,inactive: 98%
23,COc1ccc(OC)c(NC(=O)Cn2cnc3onc(-c4ccc(Cl)cc4)c3c2=O)c1,inactive: 169%

row,Compound,survival
1,COc1ccc(NC(=O)CN(C)S(=O)(=O)c2ccc3c(c2)c(=O)n(C)c(=O)n3C)cc1,inactive: 130%
2,Cc1cc(C)n(-c2nc3ccccc3nc2Nc2cc(Cl)ccc2C)n1,inactive: 130%
3,Cc1cc(NC(=O)Nc2nnc(N3CCCCC3)s2)ccc1Br,inactive: 74%
4,Cc1ccc(C(=O)N2CCN(Cc3cc(=O)n4nc(-c5ccccc5)sc4n3)CC2)cc1,inactive: 55%
5,COc1ccccc1CNC(=O)CSc1nc(=O)[nH]c2c1CCCC2,inactive: 101%
6,CCN(Cc1ccccc1)C(=O)Cn1c(=O)n(-c2ccc(Cl)c(Cl)c2)c(=O)c2c(C)c(C(=O)N(C)C)sc21,inactive: 64%
7,Cc1ncsc1C(=O)O,inactive: 86%
8,Cc1ccc(NC(=O)CCn2c(=O)c3cccn3c3ccccc32)cc1Cl,active: 45%
9,O=C(CSc1nc(=O)n(Cc2ccco2)c2c1CCC2)NCc1ccc(Cl)cc1,inactive: 69%
10,C=CCSc1nc(O)c(CC(C)C)c(=O)[nH]1,inactive: 62%
11,COc1cc(OC)c(NC(=O)Cn2cnc3sc(C)c(S(=O)(=O)N4CCC(C)CC4)c3c2=O)cc1Cl,inactive: 83%
12,COc1ccc(N2CC(NC(=O)C(=O)c3c(C)[nH]c4ccccc34)CC2=O)cc1 (stereo not given),inactive: 89%
13,CCc1ccc(CNC(=O)C2CCN(c3nnc(C)c4c(C)n(-c5ccc(C)cc5)nc34)CC2)cc1,inactive: 78%
14,CCOc1ccc(N(C(C)C(=O)NCCSc2ccc(Cl)cc2)S(C)(=O)=O)cc1 (stereo not given),inactive: 54%
15,Cc1cc(NC(=O)c2cc(-c3ccc(Br)cc3)on2)nn1Cc1ccc(Cl)cc1,inactive: 155%
16,CC(=O)c1cccc(-n2c(=O)c3c4c(sc3n(CC(=O)Nc3ccccc3F)c2=O)CN(C(C)=O)CC4)c1,inactive: 123%
17,CCOC(=O)Cn1c(=O)c2c(nc(N3CCOCC3)n2Cc2ccccc2)n(C)c1=O,active: 43%
18,CC(C)(CC(=O)OCC(=O)Nc1ccccc1F)CC1=NS(=O)(=O)c2ccccc2N1,inactive: 76%
19,O=C(COc1ccc([N+](=O)[O-])cc1)N1CCC(c2nc3ccccc3s2)CC1,inactive: 82%
20,Cc1ccc(-c2nnc(SCC(=O)N3CCCc4ccccc43)o2)cc1,inactive: 63%
21,CCCCNc1nc(Oc2ccc(=O)n(-c3ccccc3)n2)nc(N(CC)CC)n1,inactive: 81%
22,COc1ccc(NCc2nnc(SCC(=O)c3ccc(OC)cc3)n2C)cc1,inactive: 76%
23,O=C(Nc1nnc(S(=O)(=O)N2CCCCCC2)s1)c1ccccc1F,active: 47%

row,Compound,survival
1,CCOC(=O)C1CCN(c2cc(C)nc3c(-c4ccccc4OC)c(C)nn23)CC1,inactive: 70%
2,O=C(Cn1nc(-c2ccccc2)c2cnc3ccc(F)cc3c21)NC1CCCC1,inactive: 102%
3,CCCCNC(=O)Cn1c(-c2ccc(C)cc2)noc1=O,inactive: 102%
4,CCOc1cccc2sc(N3CCN(C(=O)C(C)(C)C)CC3)nc12,inactive: 77%
5,COc1ccc(NC(=O)Cn2cc(C(=O)c3ccncc3)c(=O)c3cc(C)ccc32)cc1Cl,inactive: 75%
6,COc1ccc(CNC(=O)CCc2c(C)c3ccc(OC)c(C)c3oc2=O)cc1OC,inactive: 80%
7,Cc1cccc(Cn2c(SCc3ccc(C(=O)NCc4ccccc4)cc3)nc3cccnc32)c1,active: 46%
8,CCNC(=O)C1CCCN(c2ncnc3onc(C)c23)C1 (stereo not given),inactive: 101%
9,COC(=O)c1ccc(-n2nnc(-c3nc(-c4ccccc4Cl)no3)c2C)cc1,inactive: 72%
10,Cc1ccc(C(=O)c2oc3ccccc3c2NC(=O)c2cc(=O)c3cc(C)ccc3o2)cc1,inactive: 105%
11,COc1cccc(Cn2ccn(-c3ccc(F)cc3)c(=O)c2=O)c1,inactive: 54%
12,Cc1ccc(NC(=O)c2nnn(Cc3cccc(C(F)(F)F)c3)c2N)c(C)c1,inactive: 86%
13,Cc1ccc(-c2nc(C(=O)N3CCN(c4ccccc4)CC3)c3n2CCCCC3)cc1,inactive: 66%
14,CCC(Sc1ncccc1C(=O)Oc1ccccc1Cl)C(=O)Nc1ccccc1OC (stereo not given),inactive: 84%
15,COc1ccc(NC(=O)C(NC(=O)C2CCC(C)CC2)C(C)C)cc1 (stereo not given),inactive: 79%
16,Cc1ccc2c(=O)c(C(=O)c3ccccc3)cn(CC(=O)Nc3ccc(C)c(Cl)c3)c2n1,inactive: 77%
17,CCCNC(=O)c1ccc2c(c1)nc(C)n2-c1cccc(C)c1,inactive: 83%
18,Cc1nn(C)c2c1c(C(F)(F)F)cc(=O)n2C(C)C(=O)NCCC(C)C (stereo not given),inactive: 91%
19,Cc1ccc(N2C(=O)CS(=O)(=O)C23C(=O)N(Cc2ccccc2C)c2ccccc23)cc1Cl (stereo not given),inactive: 74%
20,CN1CCN(C(=O)Cn2c(-c3cccs3)cc3ccccc32)CC1,inactive: 95%
21,COc1cc(OC)cc(C(=O)Nc2ccc(-c3nc4ccccc4s3)c(C)c2)c1,inactive: 117%
